From PubChem BioAssay AID1745853 (National Center for Advancing Translational Sciences (NCATS), 2022) come the findings set out here.

What all share (assay): Primary Screen for Target Class Profiling of Small Molecule Inhibitors of Methyltransferases
Assay [1] concerns the target Glycine N-methyltransferase (Homo sapiens) (UniProt Q14749). The settings on record: purified enzyme, MTase-Glo SAH luminescence; measured here: GNMT inhibition; at 40 µM; stronger effect = lower value. Put shortly: (§1)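 Each enzyme was assayed with SAM and its substrate. SAH formation detected by MTase-Glo luminescence; single-point 40 uM screen[…].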
Assay [2] has as its target Guanidinoacetate N-methyltransferase (Homo sapiens) (UniProt Q14353). The settings on record: purified enzyme, MTase-Glo SAH luminescence; measured here: GAMT inhibition; at 40 µM; stronger effect = lower value. Put shortly: as §1
In assay [3] the target is Histamine N-methyltransferase (Homo sapiens) (UniProt P50135). The settings on record: purified enzyme, MTase-Glo SAH luminescence; measured here: HNMT inhibition; at 40 µM; stronger effect = lower value. The gist of the method:
as §1

Assay [4] addresses Nicotinamide N-methyltransferase (Homo sapiens) (UniProt P40261). Conditions: purified enzyme, MTase-Glo SAH luminescence; measured here: NNMT inhibition; at 40 µM; stronger effect = lower value. Put shortly:
as §1

Assay [5] concerns the target Phenylethanolamine N-methyltransferase (Homo sapiens) (UniProt P11086). Conditions: purified enzyme, MTase-Glo SAH luminescence; measured here: PNMT inhibition; at 40 µM; stronger effect = lower value. Put shortly:
as §1

The list shows a part of the results. The main result of the screen is listed elsewhere. These columns were measured beside it and carry no call.
% is scaled to controls: 0 for no effect and ±100 for the full control effect.

Take `O=C(CCc1conc1-c1ccccc1F)NCc1ccc(Cl)cc1`: the activity change, negative = inhibition in assay [1] was -4.71%; in assay [2] it was -5.15%; in assay [3], -0.248%; in assay [4] it was -14.1%; in assay [5] it was 4.35%.

Turning to `O=C(c1csc2nc(-c3ccc(F)cc3)cn12)N1C[C@H]2CC[C@@H](C1)N2`, the activity change, negative = inhibition in assay [1] was -7.15%; in assay [2], -1.55%; in assay [3] it was -5.55%; in assay [4], -0.544%; in assay [5], -1.86%.

`CN1C(=O)c2cc(C(=O)NCc3ccc4c(c3)OCO4)nn2CC1(C)C(=O)NC1CCCCCC1` (centres undefined): the activity change, negative = inhibition in assay [1] came out at 4.54%; in assay [2], 0%; in assay [3], 2.38%; in assay [4], 6.68%; in assay [5], 2.37%.

With `COC(=O)c1cc2n(n1)CC(C)(C(=O)NC1CCCCC1)N(c1cccc(C)c1C)C2=O` (centres undefined), the activity change, negative = inhibition amounted to 7.39% in assay [1]; 0% in assay [2]; 12.3% in assay [3]; 11.7% in assay [4]; 7.43% in assay [5].

Consider `CC1CCN(CC[C@H]2CCCN2S(=O)(=O)c2cccc(O)c2)CC1`, for which the activity change, negative = inhibition in assay [1] is 5.18%; in assay [2], 14.1%; in assay [3], 7.4%; in assay [4], -1.48%; in assay [5], 2.59%.

With `CCc1ccccc1CN1CCCC2(Cc3ccccc3CNC2=O)C1` (centres undefined), the activity change, negative = inhibition in assay [1] is -6.88%; in assay [2] it was -3.04%; in assay [3] it was -11.6%; in assay [4], -17.8%; in assay [5], -3.12%.

Turning to `COc1ccc2ccc(OCc3nc(C(=O)N4CCCNC(=O)C4)co3)cc2c1`, the activity change, negative = inhibition in assay [1] was -5%; in assay [2], -3.88%; in assay [3] it was -4.61%; in assay [4] it was -6.66%; in assay [5], -18.8%.

For `Clc1cccc(-c2nnn3c2nc(NCc2ccc4c(c2)OCO4)c2ccccc23)c1`, the activity change, negative = inhibition in assay [1] was 0.826%; in assay [2], 3.93%; in assay [3] it was 3.23%; in assay [4] it was -6.25%; in assay [5] it was -3.69%.

As for `CC1(C)CC[C@]2(C(=O)O[C@@H]3O[C@H](CO)[C@@H](O)[C@H](O)[C@H]3O)CC[C@]3(C)C(=CCC4[C@@]5(C)C[C@@H](O)[C@H](O)[C@@](C)(CO)C5CC[C@]43C)C2C1` (some centres undefined), the activity change, negative = inhibition was -1.38% in assay [1]; -6.37% in assay [2]; -6.78% in assay [3]; -22.5% in assay [4]; -2.12% in assay [5].

`CNC(=O)CCn1ncc2cc(OCc3ccccc3-c3ccc(F)c(Cl)c3)ccc21`: the activity change, negative = inhibition in assay [1] was -3.42%; in assay [2], 2.93%; in assay [3], -0.921%; in assay [4] it was -18.2%; in assay [5], 4.95%.

For the molecule `COc1cn(-c2ccc(-n3cccn3)cc2F)nc(-c2ccnn2-c2ccccc2)c1=O`, the activity change, negative = inhibition was -0.238% in assay [1]; 4.48% in assay [2]; 10.8% in assay [3]; -15.7% in assay [4]; 1.56% in assay [5].

As to `CNc1cc(C)nc(N2CC[C@H](N3CCOCC3)[C@H](CCC(=O)O)C2)n1`, the activity change, negative = inhibition in assay [1] was -1.56%; in assay [2], -2.37%; in assay [3] it was -19.2%; in assay [4], -8.12%; in assay [5] it was -1.99%.

Regarding `CC(Nc1ncnc2nc[nH]c12)c1cc2cccc(Cl)c2c(=O)n1-c1ccccc1` (centres undefined), the activity change, negative = inhibition in assay [1] is -6.26%; in assay [3] it was -0.969%.

Turning to `CCCn1c(=O)c2cc(Cl)ccc2n2c(=O)n(Cc3ccc(C)cc3)nc12`, the activity change, negative = inhibition in assay [1] came out at 6.31%; in assay [2] it was 0%; in assay [3], 11.2%; in assay [4], 2.2%; in assay [5] it was 4.35%.

For `CC(C)c1ccc(N2C(=O)c3cc4ccccc4n3CC2(C)C(=O)NC2CCCC2)cc1` (centres undefined), the activity change, negative = inhibition in assay [1] was 2.78%; in assay [2], 4.03%; in assay [3], 2.35%; in assay [4], 0.718%; in assay [5], 2.5%.

In the case of `Cc1ccccc1CSc1nnc2n(CC(C)C)c(=O)c3cc(F)ccc3n12`, the activity change, negative = inhibition in assay [1] is -4.79%; in assay [2] it was 0%; in assay [3], 5.91%; in assay [4], -4.25%; in assay [5], 4.48%.

`Cc1ccc(NC(=O)c2ccc(CN3CCNCC3)cc2)cc1Nc1nccc(-c2cccnc2)n1`: the activity change, negative = inhibition in assay [1] is -4.71%; in assay [2], 8.64%; in assay [3] it was -23.1%; in assay [4], -15.1%; in assay [5], -4.22%.

Turning to `COc1ccccc1CNC(=O)C1(C)Cn2cnc(C(=O)NCc3ccc(OC(C)C)cc3)c2C(=O)N1C1CC1` (centres undefined), the activity change, negative = inhibition in assay [1] was determined as 4.66%; in assay [2] it was 3.83%; in assay [3] it was 8.31%; in assay [4], 7.84%; in assay [5], 7.51%.

In the case of `CCc1cc2c(cc3n2CC(C)(C(=O)NC2CCCCCC2)N(CCCOC(C)C)C3=O)s1` (centres undefined), the activity change, negative = inhibition in assay [1] was 3.98%; in assay [2], 1.59%; in assay [3] it was 7.46%; in assay [4], 9.34%; in assay [5] it was 0.21%.

As to `CC(C)C(N)C(=O)OCCOCn1cnc2c(=O)[nH]c(N)nc21` (centres undefined), the figures for the activity change, negative = inhibition in assay [1] and in assay [3] were -2.98% and -3.63%, respectively.

Turning to `NC(N)=N[C@@H](CCC(=O)O)C(=O)O`, the activity change, negative = inhibition in assay [1] was -4.5%; in assay [2], 6.35%; in assay [3], -1.86%; in assay [4], -3.86%; in assay [5] it was 7.7%.

Consider `O=C1COc2ccc(-c3ccoc3)nc2CN1Cc1ccccc1`, for which the activity change, negative = inhibition was -43.6% in assay [1]; -10.3% in assay [2]; -5.48% in assay [3]; -15% in assay [4]; -3.38% in assay [5].

On to `COC[C@@H]1CN(S(=O)(=O)c2ccc(C)cc2)C[C@H]1c1ccncc1`, for which the activity change, negative = inhibition is -1% in assay [1]; 0.055% in assay [2]; 1.34% in assay [3]; -4.67% in assay [4]; 1.58% in assay [5].

Regarding `CCC1c2ccc(C)n2CCN1C(=O)Nc1ccc(C)c(F)c1` (centres undefined), the activity change, negative = inhibition was 0.239% in assay [1]; 4.72% in assay [2]; 0.747% in assay [3]; -3.01% in assay [4]; -2.87% in assay [5].

With `Cc1cnc(C2CC2)n1CC1CCNCC1`, the activity change, negative = inhibition in assay [1] is -6.16%; in assay [2] it was -7.97%; in assay [3], -27.1%; in assay [4], -13.4%; in assay [5], -7.19%.

Take `O=C(Cn1c(=O)oc2cc(S(=O)(=O)NCc3ccccc3)ccc21)NCc1ccccc1Cl`: the activity change, negative = inhibition in assay [1] turned out to be 14.9%; in assay [2], 3.31%; in assay [3], 12.1%; in assay [4], 7.22%; in assay [5], 8.35%.

With `COc1ccc(CN2CCc3nc(C(=O)NCCOc4ccccc4)oc3CC2)cn1`, the activity change, negative = inhibition in assay [1] is -25.3%; in assay [2] it was -8.38%; in assay [3], -6.25%; in assay [4] it was -14.1%; in assay [5], -2.79%.

`CCN1CCC2(CCC1=O)CN(Cc1nc(C(=O)NC)no1)CCN2C` (centres undefined): the activity change, negative = inhibition was 1.37% in assay [1]; -2.5% in assay [2]; 1.85% in assay [3]; -0.771% in assay [4]; 3.49% in assay [5].

For the molecule `N#Cc1ccc2ncnc(NCCc3ccccc3)c2c1`, the activity change, negative = inhibition in assay [1] was -21.1%; in assay [2] it was 2.17%; in assay [3], 2.74%; in assay [4] it was -10.7%; in assay [5], -4.49%.

For the molecule `COC(=O)c1cc2n(n1)CC(C)(C(=O)NC1CCC(C)CC1)N(Cc1ccccc1Cl)C2=O` (centres undefined), the activity change, negative = inhibition was 1.63% in assay [1]; 2.76% in assay [2]; 5.84% in assay [3]; -3.86% in assay [4]; -0.573% in assay [5].
